Our source for the binding values is paper PMC5035082.

Amino acid sequences for entries named in this document (tags omitted).
UniProt Q94901: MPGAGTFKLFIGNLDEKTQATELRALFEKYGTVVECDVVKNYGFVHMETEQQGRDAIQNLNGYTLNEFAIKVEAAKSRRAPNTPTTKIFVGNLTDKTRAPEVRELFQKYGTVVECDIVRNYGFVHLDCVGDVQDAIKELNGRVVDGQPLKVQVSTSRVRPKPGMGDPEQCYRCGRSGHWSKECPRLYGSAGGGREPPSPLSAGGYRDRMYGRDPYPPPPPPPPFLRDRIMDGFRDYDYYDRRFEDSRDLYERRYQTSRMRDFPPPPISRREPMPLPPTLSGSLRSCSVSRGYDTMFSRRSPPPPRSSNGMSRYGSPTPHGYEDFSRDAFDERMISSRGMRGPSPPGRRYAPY
UniProt Q7PLI2: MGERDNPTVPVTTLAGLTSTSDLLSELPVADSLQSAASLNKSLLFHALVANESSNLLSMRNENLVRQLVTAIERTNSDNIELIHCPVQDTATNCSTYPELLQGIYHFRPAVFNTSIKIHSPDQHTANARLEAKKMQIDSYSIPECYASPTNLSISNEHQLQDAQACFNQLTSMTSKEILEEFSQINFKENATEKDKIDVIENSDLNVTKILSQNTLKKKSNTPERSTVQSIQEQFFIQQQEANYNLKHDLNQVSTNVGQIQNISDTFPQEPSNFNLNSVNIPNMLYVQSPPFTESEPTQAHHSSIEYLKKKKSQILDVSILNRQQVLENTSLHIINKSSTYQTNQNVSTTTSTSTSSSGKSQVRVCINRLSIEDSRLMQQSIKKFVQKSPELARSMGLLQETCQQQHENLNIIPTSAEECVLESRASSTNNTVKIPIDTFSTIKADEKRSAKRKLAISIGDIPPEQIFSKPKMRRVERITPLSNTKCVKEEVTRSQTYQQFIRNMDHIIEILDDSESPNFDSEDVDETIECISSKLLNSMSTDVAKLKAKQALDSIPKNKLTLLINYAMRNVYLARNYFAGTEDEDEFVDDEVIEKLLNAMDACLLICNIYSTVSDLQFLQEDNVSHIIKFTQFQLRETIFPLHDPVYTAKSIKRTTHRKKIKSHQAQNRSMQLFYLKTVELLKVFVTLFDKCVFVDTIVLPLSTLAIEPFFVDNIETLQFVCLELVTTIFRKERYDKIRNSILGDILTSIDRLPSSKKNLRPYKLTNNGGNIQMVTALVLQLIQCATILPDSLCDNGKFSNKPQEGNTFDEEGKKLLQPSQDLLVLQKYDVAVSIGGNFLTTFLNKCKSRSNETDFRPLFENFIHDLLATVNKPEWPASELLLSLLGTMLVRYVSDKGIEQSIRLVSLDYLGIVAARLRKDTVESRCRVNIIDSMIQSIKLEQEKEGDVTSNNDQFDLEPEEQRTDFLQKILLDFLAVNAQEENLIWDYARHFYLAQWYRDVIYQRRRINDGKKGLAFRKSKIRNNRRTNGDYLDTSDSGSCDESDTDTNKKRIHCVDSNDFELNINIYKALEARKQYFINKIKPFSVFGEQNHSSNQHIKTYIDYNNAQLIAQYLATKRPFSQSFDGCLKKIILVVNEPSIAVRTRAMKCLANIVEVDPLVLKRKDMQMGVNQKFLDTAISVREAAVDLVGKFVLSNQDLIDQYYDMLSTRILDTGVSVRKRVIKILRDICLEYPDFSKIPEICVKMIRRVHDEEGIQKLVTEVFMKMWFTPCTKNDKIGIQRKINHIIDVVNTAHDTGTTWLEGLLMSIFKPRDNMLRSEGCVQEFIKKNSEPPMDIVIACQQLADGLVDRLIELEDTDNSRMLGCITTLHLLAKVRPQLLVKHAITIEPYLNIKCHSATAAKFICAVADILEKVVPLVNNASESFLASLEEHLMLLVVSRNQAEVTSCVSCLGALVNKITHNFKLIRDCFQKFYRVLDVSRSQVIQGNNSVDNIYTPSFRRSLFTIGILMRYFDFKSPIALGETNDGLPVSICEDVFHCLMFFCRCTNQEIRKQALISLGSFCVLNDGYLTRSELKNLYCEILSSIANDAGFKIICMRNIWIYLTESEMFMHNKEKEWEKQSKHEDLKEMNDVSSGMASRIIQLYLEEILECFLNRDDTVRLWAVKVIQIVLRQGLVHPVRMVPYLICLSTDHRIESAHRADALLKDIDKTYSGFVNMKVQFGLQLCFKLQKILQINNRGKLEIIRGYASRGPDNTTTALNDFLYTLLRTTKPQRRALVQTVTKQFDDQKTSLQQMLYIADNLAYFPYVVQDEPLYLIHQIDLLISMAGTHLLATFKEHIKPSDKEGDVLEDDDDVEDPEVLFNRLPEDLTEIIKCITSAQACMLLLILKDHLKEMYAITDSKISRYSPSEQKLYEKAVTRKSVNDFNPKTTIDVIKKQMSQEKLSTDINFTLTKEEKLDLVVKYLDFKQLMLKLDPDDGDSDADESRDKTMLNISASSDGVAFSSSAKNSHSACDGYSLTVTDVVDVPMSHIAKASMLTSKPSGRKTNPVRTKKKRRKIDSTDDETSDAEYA

In assay [1] the target is T1, His6-SUMO-TBPH fusion protein (full-length TBPH, Tar DNA binding protein homolog) (Drosophila) (UniProt O97468).
T1 sequence: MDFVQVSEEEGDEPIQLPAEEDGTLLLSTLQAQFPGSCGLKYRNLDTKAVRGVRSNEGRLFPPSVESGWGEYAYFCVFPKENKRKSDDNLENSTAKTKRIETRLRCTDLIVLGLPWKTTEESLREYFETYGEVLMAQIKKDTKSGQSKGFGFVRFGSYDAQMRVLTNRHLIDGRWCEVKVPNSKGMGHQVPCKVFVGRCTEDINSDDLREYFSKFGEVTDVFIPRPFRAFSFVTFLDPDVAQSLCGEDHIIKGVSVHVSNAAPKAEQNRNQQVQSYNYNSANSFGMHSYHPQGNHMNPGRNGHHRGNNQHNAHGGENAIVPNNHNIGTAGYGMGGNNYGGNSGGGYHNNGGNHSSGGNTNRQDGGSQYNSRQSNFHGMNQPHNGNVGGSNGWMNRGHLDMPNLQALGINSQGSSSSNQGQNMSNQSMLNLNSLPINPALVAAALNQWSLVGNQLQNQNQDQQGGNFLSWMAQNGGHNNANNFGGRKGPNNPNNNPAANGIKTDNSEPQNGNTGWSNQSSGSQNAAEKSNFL
In words: pull-down; His6-SUMO fusion proteins (about 5 micrograms) on NTA-Zn2+ agarose beads, casein-blocked, incubated 2 h at 4° with BG3 cell nuclear extract (about 400 micrograms; mock, Rad21-depleted, or pre-treated with RNase A and RNase T1); ionic strength >190 mM, 0.83% Triton X-100, 16.7 mM imidazole, 2% BSA; western blot for Nipped-B and Rad21; only the target purified. For orientation: In western blotting, separated proteins are transferred to a membrane and probed.

Assay [2] addresses His6-SUMO-Lark fusion protein (full-length Lark) (Drosophila) (UniProt Q94901). Described as above.
For assay [3], the target named is native Lark (Drosophila (endogenous in BG3 cells)) (UniProt Q94901). In words: co-IP; BG3 cell nuclear extract (about 300 micrograms) diluted 1:3 in Buffer 2, nominal ionic strength 183.4 mM, 0.133% NP-40; antibodies overnight at 4°, Protein A agarose, five washes; western blot; with or without 50 micrograms per mL ethidium bromide.
The target in assay [4] is T2, native TBPH (Drosophila (endogenous in BG3 cells)) (UniProt O97468).
T2 sequence: T1 sequence
Described as above.

For assay [5], the target named is Nipped-B (Drosophila (endogenous in BG3 cells)) (UniProt Q7PLI2). The description is as above.

No constants are given. Whether binding was seen depends on the method and setting. Binding seen in cells or lysates may run through a third protein. Some results given as binding are weak or reduced against the parent protein; the word gives no strength. For some assays here: Tags and fused reporters may be left off the sequences shown.

Regarding Nipped-B (from UniProt Q7PLI2 1-2077), the binding result in assay [1], in assay [2] and in assay [3] was “binds” each time.
In the case of native Lark (from UniProt Q94901 1-352), in assay [4], the binding entry is “no binding”.

B1: native TBPH (protein, UniProt O97468 1-531)
chain: T1 sequence
In the case of B1, the binding result in assay [5] is reported as “binds”.
